Experimental data from a compilation of properties of binary mixtures (doi:10.1016/j.molliq.2012.12.018).
Some of these densities may be calculated back from excess volumes.

Assay: xn = mol fraction of the nth substance listed
Settings: 101 kPa

CCCCCC[n+]1ccn(C)c1.[I-] + O
mass density [kg/m3]
Settings	298.15 K	308.15 K
x1 = 0.0192	1060.5	–
x2 = 0.0211	1339.3	1331.4
x2 = 0.0488	1337.8	1329.5
x2 = 0.0888	1335.6	–
x2 = 0.1888	1328.9	1320.2
x2 = 0.2501	1324.5	1316.1
x2 = 0.3026	1320.6	1312.5
x2 = 0.3488	1317.1	1309.3
x2 = 0.3976	1313.3	1305.6
x2 = 0.4439	1309.5	1301.8
x2 = 0.4989	1304.6	1296.8
x2 = 0.5898	1294.8	1286.6
x2 = 0.6438	1287.3	1278.7
x2 = 0.6898	–	1270.3
x2 = 0.8079	1245.1	1236.3
x2 = 0.9004	1187.7	1180.4
x2 = 0.9111	1177.3	1170.3
x2 = 0.9305	1154.9	1148.5
x2 = 0.9504	1125.6	–

CCCC[n+]1ccn(C)c1.[I-] + O
mass density [kg/m3]
Settings	298.15 K	308.15 K
x1 = 0.0189	1076	1073
x2 = 0.0191	1483	1479
x2 = 0.0497	1481	1477
x2 = 0.0615	1480	1476
x2 = 0.1004	1478	1474
x2 = 0.1512	1474	1470
x2 = 0.2503	1466	–
x2 = 0.3009	1461	–
x2 = 0.3488	–	1452
x2 = 0.399	1450	1446
x2 = 0.4988	–	1431
x2 = 0.5506	1425	1421
x2 = 0.5992	1415	–
x2 = 0.6596	–	1394
x2 = 0.7007	1386	–
x2 = 0.7507	1366	1361
x2 = 0.8034	1339	1334
x2 = 0.8793	1277	1272
x2 = 0.9041	1247	1242
x2 = 0.9133	1233	1229
x2 = 0.9323	1202	1198
x2 = 0.9518	1161	1157
x2 = 0.9684	1117	1114

CCCCCCCCn1cc[n+](C)c1.[I-] + O
mass density [kg/m3]
Settings	298.15 K	308.15 K
x1 = 0.019	1045.1	1040.8
x2 = 0.019	1232.9	1224.7
x2 = 0.051	1231.7	1223.4
x2 = 0.0904	–	1221.7
x2 = 0.1558	1227.3	1218.8
x2 = 0.193	1225.6	1217.1
x2 = 0.2071	–	1216.4
x2 = 0.3858	1216.1	1207.5
x2 = 0.445	1212.8	–
x2 = 0.529	1207.3	1198.8
x2 = 0.6197	1199.8	1191.5
x2 = 0.7373	–	1176.8
x2 = 0.854	1155.3	1148
x2 = 0.9047	1130.6	1123.8
x2 = 0.939	1103.8	–
x2 = 0.95	1092.2	1086.5
x2 = 0.9724	1061	1056.2
x2 = 0.979	1049.1	1044.6
